According to the RNAGym collection of RNA variant scans (doi:10.1073/pnas.2313332121):
Variants at the floor of the assay are shown more often than the library holds them.

B1: TPR 5TU (parent)
chain: GGAUCUUCUCGAUCUAACAAAAAAGACAAAUCUGCCACAAAGCUUGAGAGCAUCUUCGGAUGCAGAGGCGGCAGCCUUCGGUGGCGCGAUAGCGCCAACGUUCUCAACUAUGACACGCAAAACGCGUGCUCCGUUGAAUGGAGUUUAUCAUG

Variants of: B1
Test: polymerase ribozyme fitness, log enrichment relative to wild type (log ratio); higher = more active; in vitro selection for triplet polymerase activity
In short: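 For each subunit of a heterodimeric triplet polymerase ribozyme, a mutant library was built by PCR and transcribed, then taken through a single in vitro selection round in triplicate. Selection involved annealing to a biotinylated primer, the partner subunit and triplets, incubation frozen at −7 °C, gel excision of extended constructs, capture on streptavidin beads and RT-PCR. Genotypes were retained after Illumina sequencing of inputs and outputs only with ≥10 input reads and ≥1 read in each output. Fitness is defined as the logarithm of a genotype's enrichment relative to wild-type enrichment, using inverse-variance-weighted averages across replicates, with the logarithm taken to base 2.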

Going from GGAUCUUCUCGAUCUAACAAAAAAGACAAAUCUGCCACACAGCUUGAGCGCAUCUUCGGAUGCAGAGGCGGCAGCCUUCGGUGGCGGGAUAGCGCCAUCGUUCUCAACUAUGACACGCAAAACGCGUGCUCCGUUGAAUGGAAUUUAUCACG [A40C A49C C87G A98U G143A U151C] to GGAUCUUCUCGAUCUAACAAAAAAGACAAAUCUGCCACACAGCUUGAGAGCAUCUUCGGUUGCAGAGGCGGCAGCCUUCGGUGGCGCGAUAGCGCCAACGUUCUCAACUAUGACACGCAAAACGCGUGCUCCGUUGAAUGGAGUUUAUCAUG [A40C A60U], the “polymerase ribozyme fitness (log ratio)” value rises from at most -4.2 to 0.0412.

GGAUCUUCUCGAUCUAACAAAAAAGACAAAUCUGCCACACAGCUUGAGGACAUCUUCGGAUGCAGAGGCGGCGGCCUUCGGUGGCGCGAUAGCACCAACGUUCUCAACUAUGACACGCAAAACGCGUGCUCCGUUGAAUGGACUUUAUCAUG [A40C A49G G50A A73G G94A G143C] and GGAUCUUCUCGAUCUAACAAAAAAGACAAAUCUGCCACACAGCUUGAGAGACUCUUUGGAUGCAUAGGCGGCAGCCCUCGGUGGCGCGAUAGCUCCAACGUUCUCAACUAUAACACGCAAAACGCGUGCUCCGUUGAAUGGAGUUUAUCAUG [A40C C51A A52C C57U G65U U77C G94U G112A] cannot be ordered by “polymerase ribozyme fitness (log ratio)” value: at most -4.2 for the first, at most -4.2 for the second.

GGAUCUUCUCGAUCUAACAAAAAAGACAAAUCUGCCACACAGCUUGAGAGCAUCUUCGGAUGCAGAGGCGGCAGCCUUCGGUGGAGCGAUAUCGCCAACGUUCUCAACUAUGACACGCCAAACGCGUGCUCCGUUGAAUGGAGUUUCUCAUG [A40C C85A G92U A119C A147C] and GGAUCUUCUCGAUCUAACAAAAAAGACAAAUCUGCCACACAGCUUGAGAGCAUCUUCGGAUGCAGUGGCGGCAGCCUUCGGUGACGCGAUAGCGCCAACGUUCUCAACUAUGACACGCAAAACGCGUGCUCCUUUGAAUGGACUUUAUCAUG [A40C A66U G84A G133U G143C] cannot be ordered by “polymerase ribozyme fitness (log ratio)” value: at most -4.2 for the first, at most -4.2 for the second.

GGAUCUUCUCGAUCUAACAAAAAAGACAAAUCUGCCACACAGCUUGAGAGUAUCUUCGGAUGCAGAGGCGGCAGCCUUCGGUGGCGCGAUAACGCCAACGUUCUCAACUAUGACACGCAAAACGCGUACUCCGUUGAAUGGAGUUUAUCAUG [A40C C51U G92A G128A] and GGAUCUUCUCGAUCUAACAAAAAAGACAAAUCUGCCACACAGCUUGAGAGCAUGUUCGGAUGCAGAGGCGGCAGCCUUCGGUGGCGCGAUAGAGCCAACGUUCUCAACUAUGAUACGCAAAACGCGUGCUCCGUUGAAUGGAGUUUAUCAUG [A40C C54G C93A C114U] cannot be ordered by “polymerase ribozyme fitness (log ratio)” value: at most -4.2 for the first, at most -4.2 for the second.

First: GGAUCUUCUCGAUCUAACAAAAAAGACAAAUCUGCCACACAGCUUGAGAGCAUCUUCGGAUGCAGAGGGGGCAGCCUUCAGUGGCGCGAUAGCGCCAACGUUCUCAACUAUGACACGCAAAACGCGUGCUCCGUUGAAUGGAGUUUAUCAUG [A40C C69G G80A]
Second: GGAUCUUCUCGAUCUAACAAAAAAGACAAAUCUGCCACACCGCUAGAGAGCAUCUUCGGAUGCAGAGGCGGCAGCCUUCGGUGGCGCGAUAGCGCCAACGUUCUCAACUAUGACUCGCAGAACGCGUGCUCCGUUGAAUGGAGCUUAUCAUG [A40C A41C U45A A115U A120G U144C]
The “polymerase ribozyme fitness (log ratio)” value of the first is higher: -0.716 for the first, at most -4.2 for the second.

GGAUCUUCUCGAUCUAACAAAAAAGACAAAUCUGCCACACAGCUUGAGAGCAUAUUCGGGUGCAGAGGCGGCAGCCUUCGGUGGCGCGAUAGCGCCAACGUUCUCAACUAUGCCACGCAAAACGCGUGCUCCGUUAAAUGGAGUUUCGCAUG [A40C C54A A60G A113C G136A A147C U148G] and GGAUCUUCUCGAUCUAACAAAAAAGACAAAUCUGCCACACAGCUUGAGUGCAUCUUCGGAUGCAGAGGCGGCAGCCUUCGGUGGCGCGAUAUCGCCAACGUUCUCGACUAUGACACGCAAAACGCGUGCUCCGUUGAAUCGAGUUUAUCAUG [A40C A49U G92U A106G G140C] cannot be ordered by “polymerase ribozyme fitness (log ratio)” value: at most -4.2 for the first, at most -4.2 for the second.

Going from GGAUCUUCUCGAUCUAACAAAAAAGACAAAUCUGCCACACAGCUUGAGAGCAUCUUCGGAUGCAGAGGCGGCAGCCUUCGGUGGGGCGAUAGCGCCAACGUUCUCAACUAUGACACGCAAAACGCGUGCUCCGUUGAAUGGAGUUUAUCAUG [A40C C85G] to GGAUCUUCUCGAUCUAACAAAAAAGACAAAUCUGCCACACAGCUUGAGAGCAUCUUCGGAUGCAGCGGCGGCAGACUUCGAUGGCGCGAUACCGGCAACGUUCUCAACUAUGACACGCAAAACGCGUGCUCCGUUGAAUGGAGUUUAUCAUG [A40C A66C C75A G81A G92C C95G], the “polymerase ribozyme fitness (log ratio)” value falls from -1.95 to at most -4.2.

GGAUCUUCUCGAUCUAACAAAAAAGACAAAUCUGCCACACAGCUUGAGAGCCUCUUCGGAUGCAGAGGCGGCAGCCUUCGAUAGCGCGAUAGGGCCAACGUUCUCAACUAUGACACGCAAAACGCGUGCUCCGUUGAAUGGAGUUUAUCAUG [A40C A52C G81A G83A C93G] and GGAUCUUCUCGAUCUAACAAAAAAGACAAAUCUGCCACACAGCUUGAGAGCUUCUUCGGUUGCAGAGGCGGCAGCCUUCGGUGGCGCGAUAGGGCCAACGUUCUCAACUAUGACACGCAAAACGCGUGCUCCGUUGAAUGGAGUUUAUCUUG [A40C A52U A60U C93G A150U] cannot be ordered by “polymerase ribozyme fitness (log ratio)” value: at most -4.2 for the first, at most -4.2 for the second.

GGAUCUUCUCGAUCUAACAAAAAAGACAAAUCUGCCACACCGCUUGAGAGCAUCUUCGAAUGCAGAGGCUGCAGCCUUCGGUGAAGCGAUAGCGCCAACGUUCUGAACUAUGACACGCAAAACGCGUGCUCCGUUGAAUGCAUUUUAUCAUG [A40C A41C G59A G70U G84A C85A C105G G141C G143U] and GGAUCUUCUCGAUCUAACAAAAAAGACAAAUCUGCCACACAGCUUGAGAGCCUCCUCGGAUGCAGAGACGGCAGCCUUCGGUGGCGUGAUAGCGCCAACGUUCUGAACUAUGACACGCAAAACGCGUGCUCCGUUGAAUGGUGUUUAUCAUA [A40C A52C U55C G68A C87U C105G A142U G152A] cannot be ordered by “polymerase ribozyme fitness (log ratio)” value: at most -4.2 for the first, at most -4.2 for the second.

With GGAUCUUCUCGAUCUAACAAAAAAGACAAAUCUGCCACACAGCUUGAGAGCAUCUUCGGAUGCAGAGGCGGCAGCCUUCGGUGGCGCGAUAGCGCCAACGUUCUCAACUAUGACACGCCAAACGCGUGCUCCGUUGAAUGGAGUUUAUCAUG [A40C A119C] the “polymerase ribozyme fitness (log ratio)” value was 0.851.
